# Measured values reported in the supplement of paper PMC8728848.
# The list shows a part of the results.
# How the values were obtained:
# Experiment in all cases: glycan array binding signal (z-score within array); higher = stronger binding
# Conditions in all cases: glycan notation: IUPAC condensed, linker removed
# [1] = target: Man(a1-2)Man(a1-3)[Man(a1-2)Man(a1-6)]Man
# Outline: (§1)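 The binding signal is a Z-score computed within each array. Data were drawn from 3228 arrays in the Consortium for Functional Glycomics database, restricted to those with a known protein sequence. Scores were averaged over arrays of the same protein sequence at different concentrations or buffers, and over linkers, and negative values can be taken as non-binding.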
# [2] = target: Man(a1-2)Man(a1-3)[Man(a1-2)Man(a1-6)]Man(a1-6)[Man(a1-2)Man(a1-2)Man(a1-3)]Man
# Outline: as §1
# [3] = target: Man(a1-2)Man(a1-3)[Man(a1-2)Man(a1-6)]Man(a1-6)[Man(a1-2)Man(a1-2)Man(a1-3)]Man(b1-4)GlcNAc(b1-4)GlcNAc
# Outline: as §1
# [4] = target: Man(a1-2)Man(a1-3)[Man(a1-6)]Man(a1-6)[Man(a1-2)Man(a1-3)]Man(b1-4)GlcNAc(b1-4)GlcNAc
# Outline: as §1
# [5] = target: Man(a1-2)Man(a1-6)[Man(a1-3)]Man(a1-6)[Man(a1-2)Man(a1-2)Man(a1-3)]Man
# Outline: as §1
# [6] = target: Man(a1-2)Man(a1-6)[Man(a1-3)]Man(a1-6)[Man(a1-2)Man(a1-2)Man(a1-3)]Man(b1-4)GlcNAc(b1-4)GlcNAc
# Outline: as §1
# Man(a1-3)[Man(a1-6)]Man = target: Man(a1-3)[Man(a1-6)]Man
# Outline: as §1
# [7] = target: Man(a1-3)[Man(a1-6)]Man(a1-6)[Man(a1-2)Man(a1-3)]Man(b1-4)GlcNAc(b1-4)GlcNAc
# Outline: as §1
# [8] = target: Man(a1-3)[Man(a1-6)]Man(a1-6)[Man(a1-3)]Man
# Outline: as §1
# [9] = target: Man(a1-3)[Man(a1-6)]Man(a1-6)[Man(a1-3)]Man(b1-4)GlcNAc(b1-4)GlcNAc
# Outline: as §1
# [10] = target: Man(a1-3)[Man(a1-6)]Man(b1-4)GlcNAc(b1-4)GlcNAc
# Outline: as §1
# [11] = target: Man(a1-3)[Man(a1-6)]Man(b1-4)GlcNAc(b1-4)[Fuc(a1-6)]GlcNAc
# Outline: as §1
# Man(a1-6)Man = target: Man(a1-6)Man
# Outline: as §1
# Man(b1-4)GlcNAc = target: Man(b1-4)GlcNAc
# Outline: as §1
# MurNAc(b1-4)GlcNAc = target: MurNAc(b1-4)GlcNAc
# Outline: as §1
# Neu5Ac(a2-3)Gal = target: Neu5Ac(a2-3)Gal
# Outline: as §1
# [12] = target: Neu5Ac(a2-3)Gal(b1-3)GalNAc
# Outline: as §1
# [13] = target: Neu5Ac(a2-3)Gal(b1-3)GalNAc(b1-3)Gal(a1-4)Gal(b1-4)Glc
# Outline: as §1
# [14] = target: Neu5Ac(a2-3)Gal(b1-3)GalNAc(b1-4)Gal(b1-4)Glc
# Outline: as §1
# [15] = target: Neu5Ac(a2-3)Gal(b1-3)GalNAc(b1-4)[Neu5Ac(a2-3)]Gal(b1-4)Glc
# Outline: as §1
# [16] = target: Neu5Ac(a2-3)Gal(b1-3)GalNAc(b1-4)[Neu5Ac(a2-8)Neu5Ac(a2-3)]Gal(b1-4)Glc
# Outline: as §1
# [17] = target: Neu5Ac(a2-3)Gal(b1-3)GalNAc6S
# Outline: as §1
# [18] = target: Neu5Ac(a2-3)Gal(b1-3)GlcNAc
# Outline: as §1
# [19] = target: Neu5Ac(a2-3)Gal(b1-3)GlcNAc(b1-2)Man
# Outline: as §1
# [20] = target: Neu5Ac(a2-3)Gal(b1-3)GlcNAc(b1-2)Man(a1-3)[GlcNAc(b1-4)][Neu5Ac(a2-3)Gal(b1-3)GlcNAc(b1-2)Man(a1-6)]Man(b1-4)GlcNAc(b1-4)GlcNAc
# Outline: as §1
# [21] = target: Neu5Ac(a2-3)Gal(b1-3)GlcNAc(b1-2)Man(a1-3)[Neu5Ac(a2-3)Gal(b1-3)GlcNAc(b1-2)Man(a1-6)]Man(b1-4)GlcNAc(b1-4)GlcNAc
# Outline: as §1
# [22] = target: Neu5Ac(a2-3)Gal(b1-3)GlcNAc(b1-2)[Neu5Ac(a2-3)Gal(b1-3)GlcNAc(b1-4)]Man(a1-6)[Neu5Ac(a2-3)Gal(b1-3)GlcNAc(b1-2)Man(a1-3)]Man(b1-4)GlcNAc(b1-4)GlcNAc
# Outline: as §1
# [23] = target: Neu5Ac(a2-3)Gal(b1-3)GlcNAc(b1-3)Gal(b1-3)GlcNAc
# Outline: as §1
# [24] = target: Neu5Ac(a2-3)Gal(b1-3)GlcNAc(b1-3)Gal(b1-4)GlcNAc
# Outline: as §1
# [25] = target: Neu5Ac(a2-3)Gal(b1-3)GlcNAc(b1-3)GalNAc
# Outline: as §1
# [26] = target: Neu5Ac(a2-3)Gal(b1-3)GlcNAc(b1-6)GalNAc
# Outline: as §1
# [27] = target: Neu5Ac(a2-3)Gal(b1-3)GlcNAc6S
# Outline: as §1
# [28] = target: Neu5Ac(a2-3)Gal(b1-3)[Fuc(a1-4)]GlcNAc
# Outline: as §1
# [29] = target: Neu5Ac(a2-3)Gal(b1-3)[Fuc(a1-4)]GlcNAc(b1-3)Gal(b1-3)[Fuc(a1-4)]GlcNAc
# Outline: as §1
# [30] = target: Neu5Ac(a2-3)Gal(b1-3)[Fuc(a1-4)]GlcNAc(b1-3)Gal(b1-4)[Fuc(a1-3)]GlcNAc
# Outline: as §1
# [31] = target: Neu5Ac(a2-3)Gal(b1-3)[GlcNAc(b1-6)]GalNAc
# Outline: as §1
# [32] = target: Neu5Ac(a2-3)Gal(b1-3)[Neu5Ac(a2-6)]GalNAc
# Outline: as §1
binder,measurement,setting,value
"Sebin2 (Coprinopsis cinerea), A8PE78 (protein) MTTPFYAYCHNVQDDNTWRLGLVFANRSTADEWWRAISEATSSIPITKSITRVTPQYYTHDIRVWNMYNFFVDGNIKSISDKFRGRLFITLEYDRSGRGVSVFPPLHIVDHVSGNWYYIRSKTAPHLFWFYDETRNAIYASKEKRTRFKVSIRNPSPQTPKDAIMINSDDVVIHIKESLYVGVDSYLGHIIPTRAYRTFKFGELEGGAIAGIEVAENAEERCSSTFDGASLYFVGPDSSSPGEPWELV",glycan array binding signal (z-score),[1],-0.437
same,glycan array binding signal (z-score),[2],-0.001
same,glycan array binding signal (z-score),[3],-0.247
same,glycan array binding signal (z-score),[4],-0.499
same,glycan array binding signal (z-score),[5],-0.122
same,glycan array binding signal (z-score),[6],-0.265
same,glycan array binding signal (z-score),Man(a1-3)[Man(a1-6)]Man,-0.087
same,glycan array binding signal (z-score),[7],0.525
same,glycan array binding signal (z-score),[8],0.238
same,glycan array binding signal (z-score),[9],-0.138
same,glycan array binding signal (z-score),[10],-0.381
same,glycan array binding signal (z-score),[11],-0.016
same,glycan array binding signal (z-score),Man(a1-6)Man,0.024
same,glycan array binding signal (z-score),Man(b1-4)GlcNAc,-0.209
same,glycan array binding signal (z-score),MurNAc(b1-4)GlcNAc,-0.264
same,glycan array binding signal (z-score),Neu5Ac(a2-3)Gal,-0.73
same,glycan array binding signal (z-score),[12],6.35
same,glycan array binding signal (z-score),[13],0.068
same,glycan array binding signal (z-score),[14],-0.228
same,glycan array binding signal (z-score),[15],-0.179
same,glycan array binding signal (z-score),[16],-0.915
same,glycan array binding signal (z-score),[17],-0.025
same,glycan array binding signal (z-score),[18],-0.181
same,glycan array binding signal (z-score),[19],-0.261
same,glycan array binding signal (z-score),[20],0.192
same,glycan array binding signal (z-score),[21],-0.166
same,glycan array binding signal (z-score),[22],0.057
same,glycan array binding signal (z-score),[23],-0.446
same,glycan array binding signal (z-score),[24],-0.391
same,glycan array binding signal (z-score),[25],-0.169
same,glycan array binding signal (z-score),[26],-0.022
same,glycan array binding signal (z-score),[27],-0.072
same,glycan array binding signal (z-score),[28],-0.027
same,glycan array binding signal (z-score),[29],-0.079
same,glycan array binding signal (z-score),[30],-0.391
same,glycan array binding signal (z-score),[31],-0.419
same,glycan array binding signal (z-score),[32],-0.41
